{"source": "PubChem BioAssay AID360", "about": "(National Center for Advancing Translational Sciences (NCATS), 2006)", "note": "About 550 (1.1%) of roughly 48,000 compounds were called active. Roughly 4% stayed inconclusive and do not appear here. No stated cut-off is given here; in the data, active means potency below about 15 µM; inconclusive means mostly about 16 µM to 33 µM; inactive means weaker than that. This is one part of the list. Potency means the concentration at half of the fitted maximal effect."}
{"biological_target": "Lysosomal acid glucosylceramidase (Homo sapiens) (UniProt P04062)", "sequence (P04062 whole entry, looked up)": "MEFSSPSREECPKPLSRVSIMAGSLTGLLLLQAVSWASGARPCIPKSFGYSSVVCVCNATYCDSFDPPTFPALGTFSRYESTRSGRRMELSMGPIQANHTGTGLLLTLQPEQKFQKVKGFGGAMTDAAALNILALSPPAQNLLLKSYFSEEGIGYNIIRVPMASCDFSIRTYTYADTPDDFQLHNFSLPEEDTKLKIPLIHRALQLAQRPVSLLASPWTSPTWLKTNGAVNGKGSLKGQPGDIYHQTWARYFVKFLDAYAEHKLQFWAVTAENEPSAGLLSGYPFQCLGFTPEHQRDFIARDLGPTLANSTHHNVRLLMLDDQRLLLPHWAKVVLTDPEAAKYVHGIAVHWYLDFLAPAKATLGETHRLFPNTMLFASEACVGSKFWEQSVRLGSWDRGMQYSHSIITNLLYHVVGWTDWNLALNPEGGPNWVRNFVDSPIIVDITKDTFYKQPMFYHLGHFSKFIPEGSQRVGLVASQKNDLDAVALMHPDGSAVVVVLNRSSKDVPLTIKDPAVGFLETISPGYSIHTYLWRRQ", "test": "Glucocerebrosidase;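 further: the screen sought inhibitors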", "settings": "purified enzyme, resorufin glucoside fluorescence (screen aimed at inhibitors), 20 min", "summary_of_the_method": "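Compounds titrated against 0.2 nM normal enzyme, 30 uM resorufin beta-D-glucopyranoside substrate, citrate/phosphate buffer with taurocholate and tween-20, pH 5.9. Reaction ran 20 min at room temperature; fluorescence (Ex 548/Em 600) gave AC50.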"}
{"smiles": "CC(C)CCNC(=O)c1cccc(Cl)c1", "Potency": "inactive: > 76.9 µM"}
{"smiles": "CCCCNS(=O)(=O)c1ccc2nc(SCC(=O)c3ccc(C#N)cc3)[nH]c2c1", "Potency": "inactive: > 76.9 µM"}
{"smiles": "CCc1nnc2sc(-c3cc(-c4ccccc4)nc4ccccc34)nn12", "Potency": "inactive: > 76.9 µM"}
{"smiles": "O=C1COc2ccc3ccccc3c2CN1", "Potency": "inactive: > 76.9 µM"}
{"smiles": "Cc1cccc(C#N)c1NC1=CC(=O)CC(C)(C)C1", "Potency": "inactive: > 76.9 µM"}
{"smiles": "COc1ccccc1NS(=O)(=O)c1cc(Cl)ccc1OC", "Potency": "inactive: > 76.9 µM"}
{"smiles": "COC(=O)c1[nH]c2cc(OC)ccc2c1NC(=O)CCN1CCCCC1", "Potency": "inactive: > 76.9 µM"}
{"smiles": "O=C(CCN1C(=O)COc2ccccc21)NCc1ccco1", "Potency": "inactive: > 76.9 µM"}
{"smiles": "O=C(NCCN1CCc2ccccc2C1)C1CCN(S(=O)(=O)N2CCC3(CC2)OCCO3)CC1", "Potency": "inactive: > 76.9 µM"}
{"smiles": "N#Cc1cccc(-n2nnnc2-c2ccccn2)c1", "Potency": "inactive: > 76.9 µM"}
{"smiles": "CCOc1ccc(NC(=O)NC2CCOC(C)(C)C2)cc1", "note": "(centres undefined)", "Potency": "inactive: > 76.9 µM"}
{"smiles": "O=C(Nc1ccc2oc(-c3ccccc3Cl)nc2c1)c1ncn[nH]1", "Potency": "inactive: > 76.9 µM"}
{"smiles": "CCOc1cccc(NC(=O)C2CC(=O)N(C)C(=Nc3ccccc3)S2)c1", "note": "(centres undefined)", "Potency": "inactive: > 76.9 µM"}
{"smiles": "CN(C)c1ccc(-c2ccccc2)nn1", "Potency": "inactive: > 76.9 µM"}
{"smiles": "CN(C)c1ccc(-c2noc(C3CCN(S(=O)(=O)c4cccc(Cl)c4)CC3)n2)cc1", "Potency": "inactive: > 76.9 µM"}
{"smiles": "COc1ccc(-c2nn(C)c3sc(C(=O)NCc4ccco4)cc23)cc1OC", "Potency": "inactive: > 76.9 µM"}
{"smiles": "COc1ccc(Cn2nnnc2C(c2cc(OC)ccc2OC)N2CCC(C(N)=O)CC2)cc1", "note": "(centres undefined)", "Potency": "inactive: > 76.9 µM"}
{"smiles": "CC1CCN(C(c2ccc(N(C)C)cc2)c2nnnn2Cc2ccc(F)cc2)CC1", "note": "(centres undefined)", "Potency": "inactive"}
{"smiles": "C=CCN(CC=C)C(=O)c1ccncc1", "Potency": "inactive: > 76.9 µM"}
{"smiles": "O=C(c1ccco1)N1CCN(C(c2ccc(F)cc2)c2nnnn2CC2CCCO2)CC1", "note": "(centres undefined)", "Potency": "inactive: > 76.9 µM"}
{"smiles": "COC(=O)C(C#N)c1nc2ccccc2nc1N1CCN(Cc2ccc3c(c2)OCO3)CC1", "note": "(centres undefined)", "Potency": "inactive: > 76.9 µM"}
{"smiles": "COC(=O)c1ccc(CSc2nnc(SCc3ccc(C(=O)OC)o3)s2)o1", "Potency": "inactive: > 76.9 µM"}
{"smiles": "Cc1nn(C)c(C)c1CNC(=O)c1nn2c(c1Cl)NC(c1cccs1)CC2C(F)(F)F", "note": "(centres undefined)", "Potency": "inactive"}
{"smiles": "c1ccc(-n2nnc3ccccc32)nc1", "Potency": "inactive: > 76.9 µM"}
{"smiles": "COc1ccc(S(=O)(=O)Nc2ccc(S(=O)(=O)N3CCOCC3)cc2)cc1C", "Potency": "inactive: > 76.9 µM"}
{"smiles": "CCN(CC)CCn1nc(C)nc1-c1ccccc1O", "Potency": "inactive: > 76.9 µM"}
{"smiles": "CC(=O)N1CCC2(CC1)C(C#N)=C(N)Oc1c2sc2nc(C)cc(C)c12", "Potency": "inactive: > 76.9 µM"}
{"smiles": "COc1ccc(CC(=O)Nc2nccs2)cc1OC", "Potency": "inactive: > 76.9 µM"}
{"smiles": "CCCS(=O)(=O)N1CCC(C(=O)NC2CCCC(C)C2C)CC1", "note": "(centres undefined)", "Potency": "inactive: > 76.9 µM"}
{"smiles": "Cc1cccc2cc3c(N)c(C#N)sc3nc12", "Potency": "inactive: > 76.9 µM"}
{"smiles": "Cc1cc(C)c2nc(N3CCCN(C(=O)c4ccco4)CC3)c(C#N)cc2c1", "Potency": "inactive: > 76.9 µM"}
{"smiles": "CC1CCN(S(=O)(=O)c2ccc(-c3nnc(SCc4cccnc4)o3)cc2)CC1", "Potency": "inactive: > 76.9 µM"}
{"smiles": "CCn1c(=O)cc(OCC(=O)N2CCCCCC2)c2ccccc21", "Potency": "inactive: > 76.9 µM"}
{"smiles": "O=C(CSc1nc(N2CCCCC2)nc(N2CCCCC2)n1)N1CCN(c2ccccc2)CC1", "Potency": "inactive: > 76.9 µM"}
{"smiles": "O=S(c1ccsc1)c1ccsc1", "Potency": "inactive: > 76.9 µM"}
{"smiles": "COC(=O)c1[nH]c(C)c(/C(O)=C2\\C(=O)C(=O)N(CCN(C)C)C2c2ccco2)c1C", "note": "(centres undefined)", "Potency": "inactive: > 76.9 µM"}
{"smiles": "CC(C)Cc1ccc(S(=O)(=O)N2CCN(C(=O)c3ccco3)CC2)cc1", "Potency": "inactive: > 76.9 µM"}
{"smiles": "C/C(O)=C(/C#N)c1nc2ccccc2[nH]1", "Potency": "inactive: > 76.9 µM"}
{"smiles": "O=C(CN1C(=O)c2ccccc2S1(=O)=O)NC1CCCC1", "Potency": "inactive: > 76.9 µM"}
{"smiles": "CCOC(=O)CC(=O)CSc1nc2c(sc(=S)n2-c2ccccc2)c(=O)[nH]1", "Potency": "inactive: > 76.9 µM"}
{"smiles": "CCn1cc(C(=O)NCc2ccc(OC)cc2OC)c(=O)c2ccc(C)nc21", "Potency": "inactive: > 76.9 µM"}
{"smiles": "COC(=O)Cn1c(CCS(=O)(=O)c2ccc(C)cc2)nc2ccccc21", "Potency": "inactive: > 76.9 µM"}
{"smiles": "COc1cccc(C2N(c3ccccn3)C(=O)C3CCCN32)c1OC", "note": "(centres undefined)", "Potency": "inactive: > 76.9 µM"}
{"smiles": "CC(=O)c1c(C(C)=O)c(C)n(NC(=O)c2ccccc2O)c1C", "Potency": "inactive: > 76.9 µM"}
{"smiles": "O=C(c1ccco1)N1CCN(C/C=C/c2ccccc2)CC1", "Potency": "inactive: > 76.9 µM"}
{"smiles": "CCc1cccc(C)c1NC(=O)CSc1nnc(-c2ccco2)n1N", "Potency": "inactive: > 76.9 µM"}
{"smiles": "O=C(Nc1ccccc1C(=O)NCCN1CCOCC1)c1ccco1", "Potency": "inactive: > 76.9 µM"}
{"smiles": "O=C(NCC1CCCO1)c1ccc(CS(=O)(=O)Cc2ccc(F)cc2)o1", "note": "(centres undefined)", "Potency": "inactive: > 76.9 µM"}
{"smiles": "CC(=O)COc1ccc2c3c(c(=O)oc2c1C)CCCCC3", "Potency": "inactive: > 76.9 µM"}
{"smiles": "O=C(CSc1ncn[nH]1)c1ccccc1", "Potency": "inactive: > 76.9 µM"}
{"smiles": "Cc1ccc(C)c(N2CCN(C(c3ccncc3)c3nnnn3Cc3ccccc3)CC2)c1", "note": "(centres undefined)", "Potency": "inactive: > 76.9 µM"}
{"smiles": "C=CCn1c(N)c(C(=O)OCC(C)C)c2nc3ccccc3nc21", "Potency": "inactive: > 76.9 µM"}
{"smiles": "COCCCNC(=O)CCCn1c(=O)[nH]c2ccccc2c1=O", "Potency": "inactive: > 76.9 µM"}
{"smiles": "O=C(O)c1c(Cl)c(Cl)c(Cl)c(Cl)c1C(=O)N1CCOCC1", "Potency": "inactive: > 76.9 µM"}
{"smiles": "COCCN1C(=O)c2ccc(C(=O)Nc3nccs3)cc2C1=O", "Potency": "inactive: > 76.9 µM"}
{"smiles": "Cn1c(SCC(=O)Nc2ccc3c(c2)OCCO3)nnc1-c1ccccn1", "Potency": "inactive: > 76.9 µM"}
{"smiles": "CCCCCNC(=O)c1ccc2c(=O)n(CC3CCCO3)c(=O)[nH]c2c1", "note": "(centres undefined)", "Potency": "active: 11 µM"}
{"smiles": "OC(Cn1cccn1)c1ccccc1", "note": "(centres undefined)", "Potency": "inactive: > 76.9 µM"}
{"smiles": "CCCC(=O)Nc1ccc(Cl)c(NC(=O)C(C)(C)C)c1", "Potency": "inactive: > 76.9 µM"}
